Laboratory results: publication PMC4336329 (PLoS ONE, 2015)
Out of some 310,000 compounds screened, about 2,200 (0.71%) showed an effect of 50% or more. Effects have a minus sign here. The list shows a part of the results.

target: human ether-à-go-go-related gene (hERG) potassium channel (human, UniProt Q12809); test: primary screen, population patch clamp on CHO cells stably expressing hERG
Sequence (Q12809 whole entry, looked up): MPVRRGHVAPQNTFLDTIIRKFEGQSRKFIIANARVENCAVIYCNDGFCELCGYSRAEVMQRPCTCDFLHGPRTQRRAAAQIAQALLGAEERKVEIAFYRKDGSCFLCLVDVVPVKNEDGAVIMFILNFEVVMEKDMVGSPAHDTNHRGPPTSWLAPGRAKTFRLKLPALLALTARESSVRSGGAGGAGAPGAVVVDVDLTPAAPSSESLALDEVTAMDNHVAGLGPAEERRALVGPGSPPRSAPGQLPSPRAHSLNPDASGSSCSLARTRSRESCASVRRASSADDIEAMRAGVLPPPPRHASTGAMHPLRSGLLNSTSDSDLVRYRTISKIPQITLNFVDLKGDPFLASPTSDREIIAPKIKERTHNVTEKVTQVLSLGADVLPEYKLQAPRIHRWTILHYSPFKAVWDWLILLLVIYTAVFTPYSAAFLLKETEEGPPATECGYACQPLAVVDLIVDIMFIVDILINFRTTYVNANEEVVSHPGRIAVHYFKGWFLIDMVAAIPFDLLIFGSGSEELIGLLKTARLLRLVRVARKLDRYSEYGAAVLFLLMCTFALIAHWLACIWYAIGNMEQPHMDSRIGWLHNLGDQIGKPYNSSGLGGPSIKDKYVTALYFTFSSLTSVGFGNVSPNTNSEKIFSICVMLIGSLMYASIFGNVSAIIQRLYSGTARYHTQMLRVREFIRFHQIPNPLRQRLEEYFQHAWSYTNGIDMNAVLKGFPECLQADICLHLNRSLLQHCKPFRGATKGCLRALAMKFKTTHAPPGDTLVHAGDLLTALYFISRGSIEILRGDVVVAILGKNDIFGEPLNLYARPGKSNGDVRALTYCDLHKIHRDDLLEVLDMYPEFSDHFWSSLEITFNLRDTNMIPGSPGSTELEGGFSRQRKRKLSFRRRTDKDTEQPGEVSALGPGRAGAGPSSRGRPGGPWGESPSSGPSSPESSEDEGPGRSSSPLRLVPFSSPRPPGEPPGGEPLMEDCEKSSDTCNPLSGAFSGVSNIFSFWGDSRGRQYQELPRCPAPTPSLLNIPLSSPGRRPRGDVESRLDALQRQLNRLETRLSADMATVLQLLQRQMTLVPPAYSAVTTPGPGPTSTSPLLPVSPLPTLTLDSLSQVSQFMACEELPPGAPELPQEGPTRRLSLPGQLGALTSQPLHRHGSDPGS

Point of comparison: O=C(NCCCn1ccnc1)c1ccc(-c2ccccc2)cc1, “hERG current change (%, negative = inhibition) at 1uM” value -8.81%. Against it:
- CC(=O)NC(c1ccc(C)cc1)c1cc(Cl)c2cccnc2c1O (stereo not drawn) — higher, 16.3%
- O=C(Nc1ccc(Br)cc1)c1cccc2c1C(=O)N(C1CCCCC1)C2 — higher, 12.4%
- COc1ccc2nc(C)cc(N3CCOCC3)c2c1 — higher, 7.31%
- CCn1c(COc2ccc(Cl)cc2)nnc1SC1CCc2ccccc2C1=O (stereo not drawn) — higher, 15.6%
- Cc1noc(C)c1S(=O)(=O)Nc1ccc(C(C)C)cc1 — higher, -2.91%
- COc1ccc(N(C)C(=O)c2cc3c(Cl)nc4ccccc4c3s2)cc1 — higher, -2.25%
- COc1ccc(S(=O)(=O)N2CCC(c3cc(-c4cccc5ccccc45)n[nH]3)CC2)cc1 — higher, 16.2%
- O=S(=O)(NCC1NCCc2ccccc21)c1ccccc1 (stereo not drawn) — higher, -3.85%
- O=C(Nc1ccccc1)c1cccc(=O)o1 — higher, 17.3%
- CCN1CCN(c2nc(NCCO)c3ccccc3n2)CC1.Cl — higher, 9%
- COc1cccc(OC)c1C(=O)Nc1ccc(CN2CCOCC2)cc1 — higher, 7.48%
- CC1=NNC(=O)C1CCC(=O)N/N=C(/C)c1ccc([N+](=O)[O-])cc1 (stereo not drawn) — higher, 4.22%
- CCn1c2ccccc2c2cc(/C=N/NC(=O)c3ccncc3)ccc21 — higher, 22.4%
- CC(C)(C)NCC(=O)c1c[nH]c2ccccc12 — higher, 8.44%
- Cc1ccc(S(=O)(=O)N(C)c2nc3ccccc3n3c(C(C)C)nnc23)cc1 — higher, 12.2%
- CN(CC(=O)OCC(=O)NCc1ccccc1)S(=O)(=O)c1ccc(Cl)cc1 — higher, 6.55%
- COc1ncccc1C(=O)N1CCC(n2nccc2NC(=O)CC(C)C)CC1 — higher, 17.1%
- COc1cc(C(=O)OCC(=O)Nc2c(C)n(C)n(-c3ccccc3)c2=O)c([N+](=O)[O-])cc1OC — higher, 15%
- CCOC(=O)c1c(-c2ccccc2)csc1NC(=O)c1cc2ccccc2oc1=O — higher, 5.41%
- CC1Cc2ccccc2N1C(=O)c1ccc(N2CCCC2)c([N+](=O)[O-])c1 (stereo not drawn) — higher, 13.9%
- COc1ccc(/C=C2\N=C(C)OC2=O)cc1OC — higher, 12%
- O=C(c1nc(-c2ccccc2)n(-c2ccccc2)n1)N1CCN(S(=O)(=O)c2ccccc2)CC1 — higher, 7.25%
- CC(C)NC(=O)C1(c2ccccc2)CCOCC1 — higher, 9.33%
- CCOc1cc(S(=O)(=O)Nc2ccc(CC)cc2)ccc1Cl — higher, -1.58%
- COc1cc(NC(=O)Nc2cccc([N+](=O)[O-])c2)cc(OC)c1 — higher, 5.53%
- COc1ccc(OC)c(NC(=O)N2C[C@H]3C[C@@H](C2)c2cccc(=O)n2C3)c1 — lower, -11.2%
- O=C(CCc1ccccc1)NNC(=O)c1ccccc1Br — higher, 7.53%
- CCCn1nnc(NC(=O)c2ccc3ccccc3c2)n1 — higher, -7.02%
- O=C(CCC1CCCCC1)Nc1ccccc1O — higher, 4.48%
- Cc1cc(C)c(C)c(S(=O)(=O)Nc2ccc3cn[nH]c3c2)c1C — higher, 8.9%
- OCCCNC(=S)Nc1ccc(Nc2ccccc2)cc1 — higher, 6.53%
- COc1ccccc1NC(=O)COC(=O)CCS(=O)(=O)c1ccc(C)cc1 — higher, 17.2%
- CN(Cc1ccccc1F)C(=O)C(Cc1ccccc1)NC(=O)c1ccccc1 (stereo not drawn) — higher, -7.1%
- Fc1c(F)c(F)c(CSc2nc3ccccc3[nH]2)c(F)c1F — higher, 5.9%
- COc1ccccc1N1CC(C)(C)C(=O)N(C(=O)c2ccc(C)cc2)C1=S — higher, 7.12%
- COc1ccc(C)cc1S(=O)(=O)Nc1ccc2c(c1)N(C(C)=O)CCC2 — higher, 12.9%
- Cc1ccc(C(C)(C)C)c(OCCCCN2CCCC2)c1 — higher, -0.547%
- CC1C=CCC2C(=O)N(c3cccc(C(=O)N4CCCCCC4)c3)C(=O)C12 (stereo not drawn) — higher, 4.96%
- Cc1onc(-c2ccccc2)c1C(=O)N/N=C/c1ccccc1OC(C)C — higher, 9.46%
- Cc1cccc(Cn2c(NCCO)nc3c2c(=O)n(C)c(=O)n3C)c1 — higher, 8.23%
- CCc1ccc(C2=NN(C(C)=O)C(c3ccco3)C2)cc1 (stereo not drawn) — higher, 0.829%
- C#Cc1ccc([C@@H]2C=C(C(=O)N3CCN(Cc4ccc5c(c4)OCO5)CC3)O[C@H](OCC)[C@H]2CCCO)cc1 — higher, -3.77%
- O=c1cc(-c2ccccc2)cc(-c2ccccc2)n1CCO — higher, 5.1%
- Cc1cc(Cc2c(O)[nH]c(=S)[nH]c2=O)ccc1OC(C)C — higher, 13.8%
